The whole screen tested about 50,000 compounds, of which about 800 (1.6%) showed an effect of 50% or more. This is one part of the list.

The target in this assay is Bcl-2-like protein 10 (Homo sapiens) (UniProt Q9HD36). The experiment in a line: Phenotype converters, Bcl-B/TR3 peptide binding displacement, primary biochemical FP (AID 1240).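 Also: 0% = Bcl-B with tracer peptide and DMSO and 100% = tracer peptide lacking Bcl-B.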 The settings on record: GST-Bcl-B / FITC-TR3 peptide fluorescence polarization; stronger effect = higher value; compound at 3.75 mg/L. Background: In fluorescence polarisation assays a small probe gives low polarisation when free and higher when bound to something large.
UniProt Q9HD36, sequence (Q9HD36 whole entry, looked up): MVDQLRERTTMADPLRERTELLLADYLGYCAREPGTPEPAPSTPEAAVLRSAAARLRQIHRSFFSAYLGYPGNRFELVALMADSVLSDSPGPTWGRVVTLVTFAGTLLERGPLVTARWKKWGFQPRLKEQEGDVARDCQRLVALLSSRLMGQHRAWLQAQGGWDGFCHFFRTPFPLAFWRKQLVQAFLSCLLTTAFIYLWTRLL
On to `Cc1ccc(S(=O)(=O)N=C2C=C(Cl)C(=O)C(Br)=C2)cc1`, for which the displacement amounted to 19.3%.
On to `COc1ccccc1C(=O)Nc1ccc(F)c(Cl)c1`, for which the displacement stood at 4.1%.
For `Cc1ccc(Cl)cc1NC(=O)CSc1nnc(N)s1` the value was -13%.
As for `O=C(NCCCc1ccccc1)C(Sc1ccccc1)c1ccccc1` (stereo not given), the figure is -24.9%.
For `O=C(CC1(O)C(=O)Nc2ccccc21)c1ccco1` (stereo not given), the displacement was determined as 13.7%.
On to `Cc1cc(Nc2ccccc2)n(C(=O)c2ccc([N+](=O)[O-])cc2)n1`, for which the displacement is 10.8%.
For `CCOc1ccccc1/C=C(/NC(=O)c1ccccc1)C(=O)N1CCCCC1` the value was 17.6%; for `COc1ccc(-c2cc(C(=O)N3CCN(Cc4ccccc4)CC3)c3ccccc3n2)cc1OC`, -8.5%; for `NC1=NC2(CCCC2)N=C(Nc2ccc(F)cc2F)N1`, -4.1%.
As for `CCOc1ccc(-c2cnc(=S)[nH]c2N)cc1`, the figure is 5.2%.
As for `COC(=O)C(C)N(C(=O)c1ccc(C(=O)c2ccccc2)cc1)c1c(C)cccc1C` (stereo not given), the displacement was 10.7%.
For `COc1ccccc1N1CCN(/N=C\c2c(C)nn(-c3ccccc3)c2C)CC1` the value was 6.3%.
Take `CCCC1=NN2C(=N)/C(=C/c3ccccc3C)C(=O)N=C2S1`: the displacement stood at 32.9%.
As for `Cc1cccc(N2CCN(S(=O)(=O)c3ccccc3[N+](=O)[O-])CC2)c1C`, the figure is -7.2%.
For `O=C(O)CCCCCN1C(=O)C(O)=C(C(=O)/C=C/c2ccccc2)C1c1ccccc1[N+](=O)[O-]` (stereo not given) the value was 9.2%.
As to `COc1ccc2c(c1)C(C)=CC(C)(C)N2C(=O)NC1CCCCC1`, the displacement was -0.3%.
As for `COc1ccc(NC(=S)NC(NC(=O)Cc2ccccc2)C(Cl)(Cl)Cl)cc1OC` (stereo not given), the figure is 9.8%; as for `COc1ccccc1N1C(=O)c2ccc(OC)c(OC)c2C1=O`, -4.1%.
On to `C/C(=N\NC(=O)COc1ccccc1[N+](=O)[O-])c1ccc(Br)cc1`, for which the displacement stood at 10.5%.
For the compound `O=C1c2ccccc2-c2c(NC3CCCCC3)c(=O)[nH]c3cccc1c23`, the displacement came to 150%.
For `CCOC(=O)Cc1csc(NC(=O)c2ccc([N+](=O)[O-])o2)n1`, the displacement is -4.1%.
As to `CC(C)Oc1ccc2c3c(c(=O)oc2c1)CCC3`, the displacement is -0.7%.
As for `CC(C)c1ccccc1NC(=O)c1sc2ccccc2c1Cl`, the figure is 0.9%.
For the compound `CC1=NNC(=O)C1CC(=O)N/N=C/c1ccc(Cl)cc1Cl` (stereo not given), the displacement was 1.3%.
`CCOC(=O)c1c(NC(=O)C2C(C=C(Cl)Cl)C2(C)C)sc2c1CCCC2` (stereo not given): the displacement turned out to be 6.3%.
For `CCc1sc(-c2c(C#N)c(N)nc3c2CCCC3)cc1Br`, the displacement was 0.7%.
In the case of `Cc1ccc(S(=O)(=O)N=Nc2c(O)[nH]c3ccccc23)cc1C`, the displacement was determined as 11.7%.
Regarding `Cc1ccc(N2C(=O)NC(=O)/C(=C/c3cc(C)n(-c4ccccc4)c3C)C2=O)cc1`, the displacement came to 21.7%.
Consider `CCCOC(=O)c1ccc(NC(=O)/C=C\C(=O)O)cc1`, for which the displacement is 18.2%.
For `C=CCNC(=O)c1cnn(-c2ccccc2)c1NC(=O)c1cccc(F)c1` the value was -5.7%; for `COc1cccc(/C=C2\C(=O)NC(=O)N(c3ccc(Br)c(C)c3)C2=O)c1OC`, -10%.
For `O=C(Nc1ccc(NC(=O)c2cccs2)cc1)c1ccccc1` the value was -0.6%; for `O=S(=O)(c1ccccc1)N1CCN(CCCc2ccccc2)CC1`, 0.3%.
As for `CC1=C(C(=O)N2CCOCC2)C(c2cccs2)NC(=O)N1` (stereo not given), the figure is 1.8%; as for `O=C(Nc1ccccc1O)c1cccc2c(Br)cccc12`, 1.4%.
For the compound `O=Cc1ccc(-c2ccc(OC(F)(F)F)cc2)o1`, the displacement was -7%.
In the case of `CCOC(=O)C1=C(C)N=c2s/c(=C\c3ccc4c(c3)OCO4)c(=O)n2C1c1ccc(C)cc1` (stereo not given), the displacement was -7.1%.
Turning to `CN1CCN(Cn2c(O)c(N=NC(=O)c3ccccc3)c3cc(Br)ccc32)CC1`, the displacement is -6.3%.
As for `Cc1ccc(SCCNC(=O)CN(c2ccccc2C)S(C)(=O)=O)cc1`, the figure is 0.5%.
As for `Cc1ccccc1N1CCN(C(=S)c2ccc(OCc3ccccc3)cc2)CC1`, the displacement was 18.1%.
Regarding `O=C(c1cccc2ccccc12)N1CCN(c2nc3ccc([N+](=O)[O-])cc3s2)CC1`, the displacement was 28.9%.
As for `C=CCOc1ccc(/C=C2\SC(=S)N(CC(=O)O)C2=O)cc1OC`, the figure is 10%.
As for `COC(=O)C1=C(C)NC2=C(C(=O)CC(c3cccs3)C2)C1c1ccsc1` (stereo not given), the figure is 4.7%.
As for `COc1ccc(C(=O)N/C(=C/c2ccc(-c3ccc(Cl)cc3)o2)C(=O)N(C)C)cc1`, the displacement came to 8.9%.
As for `CS(=O)(=O)N1CCN(Cc2ccc([N+](=O)[O-])cc2)CC1`, the figure is 10.7%; as for `O=S(=O)(c1ccc(Cl)cc1)N1CCN(Cc2cccc3ccccc23)CC1`, -4.6%; as for `O=C(Nc1nc2ccc(Cl)cc2s1)C1CC1`, -9.6%.
As to `S=C(c1ccc(-c2cccc(Cl)c2Cl)o1)N1CCN(c2ccccc2)CC1`, the displacement was -4%.
For `O=C(Nc1ncc(S(=O)(=O)c2ccc([N+](=O)[O-])cc2)s1)c1ccccc1Cl` the value was -0.6%; for `COc1ccc(NC(=O)Nc2ccc(Oc3ccccc3)cc2)cc1OC`, -0.4%.
As for `COC(=O)C1=C(C)NC2=C(C(=O)CC(c3ccccc3)C2)C1c1ccc(O)c([N+](=O)[O-])c1` (stereo not given), the figure is 11.6%.
Take `COc1ccc(OCCCCN2CCC(C)CC2)cc1`: the displacement was -1.2%.
As for `O=C(OCCN1CCOCC1)c1ccc(Cl)cc1`, the figure is -3.3%; as for `c1cncc(-c2noc(COc3ccc4ccccc4c3)n2)c1`, 0.6%; as for `C=CCNC(=O)C1CC(=O)N(c2ccc(C)cc2)C1` (stereo not given), -7.4%.
As for `Cc1cccc(N2CCN(C(=O)C(Cl)(Cl)Cl)CC2)c1C`, the displacement is 9.4%.
On to `O=C(c1ccc(Cl)cc1Cl)N1CCN(c2ccccn2)CC1`, for which the displacement came to 2.2%.
For `CN1CCc2c(sc3nc(=S)[nH]c(N)c23)C1` the value was 37.3%; for `C=C(Br)CSc1nc2ccccc2[nH]1`, 20.2%; for `O=C(/C=C/c1ccco1)N1CCN(c2ccccc2)CC1`, -3.2%.
For `O=c1c2c(nc3cc(-c4cccc(Cl)c4)[nH]n13)CCCC2` the value was -4.2%; for `O=C(N/N=C\C=C\c1ccc2c(c1)OCO2)c1ccc(F)cc1`, -12.6%; for `COc1cc(C(O)c2nccn2C)ccc1OCc1ccccc1` (stereo not given), 11%.
As for `COc1cc(/C=C/C(=O)c2c(-c3ccccc3)c3cc(Cl)ccc3[nH]c2=O)cc(OC)c1OC`, the figure is 11.5%; as for `Oc1ccccc1N=Cc1ccc(Br)cc1`, -1.9%.
`Cc1ccccc1NC(=O)C(=O)NCc1ccc(Cl)cc1`: the displacement worked out at 2.4%.
Consider `Cc1ccc([N+](=O)[O-])cc1NC(=O)COc1ccc(Cl)cc1Cl`, for which the displacement is 3.8%.
For the compound `CCc1cc2c(C)cc(=O)oc2cc1OC(=O)c1ccccc1`, the displacement is -3.3%.
For `COc1ccc(OC)c(C2C(C(C)=O)=C(O)C(=O)N2CCN(C)C)c1` (stereo not given), the displacement is -10.4%.
For `COc1c(Cl)cc(Cl)cc1/C=C1\SC(NC(C)=O)=NC1=O` the value was 74.7%.
